{"source": "the supplement of paper PMC8821664", "note": "Where a name gives a salt, the structure may show the parent alone. The list shows a part of the results. Single values are uncertain, as repeats are few or missing.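 Also: monoclonal Beas-2B line stably carrying CMV promoter-driven AQP5-HiBiT, 5,000 cells per well in 384-well plates, lytic HiBiT plus LgBiT NanoLuc luminescence, FDA-approved drug library screen.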", "data": [{"test_system": "Beas-2B AQP5-HiBiT reporter cells", "experiment": "AQP5-HiBiT luminescence relative to vehicle (ratio to vehicle); higher = higher AQP5-HiBiT protein abundance", "conditions": "10 µM; 18 h", "values": [{"compound": "CCOC(=O)[C@H](CCc1ccccc1)N[C@H]1CCc2ccccc2N(CC(=O)O)C1=O", "note": "[Benazepril hydrochloride]", "AQP5-HiBiT luminescence": 0.778}, {"compound": "CCCc1nc(C(C)(C)O)c(C(=O)OCc2oc(=O)oc2C)n1Cc1ccc(-c2ccccc2-c2nnn[nH]2)cc1", "note": "[Benicar]", "AQP5-HiBiT luminescence": 0.87}, {"compound": "Nc1ccc(/N=N/c2ccccc2)c(N)n1", "note": "[Phenazopyridine hydrochloride]", "AQP5-HiBiT luminescence": 0.902}, {"compound": "CN1CCN(CCCN2c3ccccc3Sc3ccc(Cl)cc32)CC1", "note": "[Prochlorperazine Maleate]", "AQP5-HiBiT luminescence": 1.63}, {"compound": "CCCCOc1cc(C(=O)NCCN(CC)CC)c2ccccc2n1", "note": "[Dibucaine hydrochloride]", "AQP5-HiBiT luminescence": 0.884}, {"compound": "Cc1ccc(NC(=O)c2ccc(CN3CCN(C)CC3)cc2)cc1Nc1nccc(-c2cccnc2)n1", "note": "[Imatinib (STI571)]", "AQP5-HiBiT luminescence": 1.33}, {"compound": "C=C1CC[C@H](O)C/C1=C/C=C1\\CCC[C@]2(C)[C@@H]([C@H](C)/C=C/[C@H](C)C(C)C)CC[C@@H]12", "note": "[Vitamin D2]", "AQP5-HiBiT luminescence": 1.28}, {"compound": "CN(C)[C@@H]1C(O)=C(C(N)=O)C(=O)[C@@]2(O)C(O)=C3C(=O)c4c(O)cccc4[C@@](C)(O)[C@H]3[C@H](O)[C@@H]12", "note": "[Oxytetracycline (Terramycin)]", "AQP5-HiBiT luminescence": 0.974}, {"compound": "Nc1ncn([C@@H]2O[C@H](CO)[C@@H](O)[C@H]2O)c(=O)n1", "note": "[Mylosar]", "AQP5-HiBiT luminescence": 1.61}, {"compound": "CC1=C(CC(=O)O)c2cc(F)ccc2/C1=C\\c1ccc([S+](C)[O-])cc1", "note": "(stereo unspecified) [Sulindac]", "AQP5-HiBiT luminescence": 0.971}, {"compound": "CC[C@H](C)C[C@H](C)CCCCCCCCC(=O)N[C@H]1C[C@@H](O)[C@@H](NCCN)NC(=O)[C@@H]2[C@@H](O)CCN2C(=O)[C@H]([C@H](O)CCN)NC(=O)[C@H]([C@H](O)[C@@H](O)c2ccc(O)cc2)NC(=O)[C@@H]2C[C@@H](O)CN2C(=O)[C@H]([C@@H](C)O)NC1=O", "note": "[Cancidas]", "AQP5-HiBiT luminescence": 0.805}, {"compound": "CC(C)[C@H](N)C(=O)OCC(CO)OCn1cnc2c(=O)nc(N)[nH]c21", "note": "(stereo partly specified) [Valganciclovir hydrochloride]", "AQP5-HiBiT luminescence": 0.779}, {"compound": "CCc1cccc2c3c([nH]c12)C(CC)(CC(=O)O)OCC3", "note": "(stereo unspecified) [Etodolac]", "AQP5-HiBiT luminescence": 0.657}, {"compound": "COc1cccc2c1C(=O)c1c(O)c3c(c(O)c1C2=O)C[C@@](O)(C(C)=O)C[C@@H]3O[C@H]1C[C@H](N)[C@H](O)[C@H](C)O1", "note": "[Daunorubicin hydrochloride]", "AQP5-HiBiT luminescence": 1.22}, {"compound": "NC(=O)CCC(N)C(=O)O", "note": "(racemic) [DL-Glutamine]", "AQP5-HiBiT luminescence": 0.875}, {"compound": "NNc1nncc2ccccc12", "note": "[Hydralazine hydrochloride]", "AQP5-HiBiT luminescence": 0.925}, {"compound": "Oc1c(Cl)cc(Cl)c2cccnc12", "note": "[Capitrol]", "AQP5-HiBiT luminescence": 0.83}, {"compound": "O=c1oc2ccccc2c(O)c1Cc1c(O)c2ccccc2oc1=O", "note": "[Dicumarol]", "AQP5-HiBiT luminescence": 0.68}, {"compound": "CO[C@H]1C[C@@H]2CC[C@@H](C)[C@@](O)(O2)C(=O)C(=O)N2CCCC[C@H]2C(=O)O[C@H]([C@H](C)C[C@@H]2CC[C@@H](OCCO)[C@H](OC)C2)CC(=O)[C@H](C)/C=C(\\C)[C@@H](O)[C@@H](OC)C(=O)[C@H](C)C[C@H](C)/C=C/C=C/C=C/1C", "note": "[Everolimus (RAD001)]", "AQP5-HiBiT luminescence": 0.451}, {"compound": "O=C(O)C(=O)O.[NH-][C@@H]1CCCC[C@H]1[NH-].[Pt+2]", "note": "[Oxaliplatin]", "AQP5-HiBiT luminescence": 0.677}, {"compound": "COc1ccc([C@@H]2Sc3ccccc3N(CCN(C)C)C(=O)[C@@H]2OC(C)=O)cc1", "note": "[Diltiazem hydrochloride]", "AQP5-HiBiT luminescence": 0.981}, {"compound": "Cc1cccc(C)c1NC(=O)C1CCCCN1C", "note": "(stereo unspecified) [Mepivacaine hydrochloride]", "AQP5-HiBiT luminescence": 0.777}, {"compound": "C[C@H](Cc1cc2c(c(C(N)=O)c1)N(CCCO)CC2)NCCOc1ccccc1OCC(F)(F)F", "note": "[Silodosin]", "AQP5-HiBiT luminescence": 1.54}, {"compound": "C[C@H](CCC(=O)NCCS(=O)(=O)O)[C@H]1CC[C@H]2[C@@H]3[C@@H](O)C[C@@H]4C[C@H](O)CC[C@]4(C)[C@H]3CC[C@]12C", "note": "[Tauroursodeoxycholic Acid]", "AQP5-HiBiT luminescence": 0.751}, {"compound": "CCOC(=O)N1CCC(=C2c3ccc(Cl)cc3CCc3cccnc32)CC1", "note": "[Loratadine]", "AQP5-HiBiT luminescence": 1.03}, {"compound": "Nc1nc(NC2CC2)c2ncn([C@H]3C=C[C@@H](CO)C3)c2n1", "note": "[Abacavir]", "AQP5-HiBiT luminescence": 1.14}]}]}
